Test results reported in PMC4336329 (PLoS ONE, 2015).
About 14,000 (4.5%) of roughly 310,000 compounds showed an effect of 50% or more. Effects have a minus sign here. Some of the results follow.

target: human ether-à-go-go-related gene (hERG) potassium channel (human, UniProt Q12809); assay: primary screen, population patch clamp on CHO cells stably expressing hERG
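Note: peak tail current of the secondary pulse compared with the same well before compound.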

human ether-à-go-go-related gene (hERG) potassium channel, sequence (Q12809 whole entry, looked up): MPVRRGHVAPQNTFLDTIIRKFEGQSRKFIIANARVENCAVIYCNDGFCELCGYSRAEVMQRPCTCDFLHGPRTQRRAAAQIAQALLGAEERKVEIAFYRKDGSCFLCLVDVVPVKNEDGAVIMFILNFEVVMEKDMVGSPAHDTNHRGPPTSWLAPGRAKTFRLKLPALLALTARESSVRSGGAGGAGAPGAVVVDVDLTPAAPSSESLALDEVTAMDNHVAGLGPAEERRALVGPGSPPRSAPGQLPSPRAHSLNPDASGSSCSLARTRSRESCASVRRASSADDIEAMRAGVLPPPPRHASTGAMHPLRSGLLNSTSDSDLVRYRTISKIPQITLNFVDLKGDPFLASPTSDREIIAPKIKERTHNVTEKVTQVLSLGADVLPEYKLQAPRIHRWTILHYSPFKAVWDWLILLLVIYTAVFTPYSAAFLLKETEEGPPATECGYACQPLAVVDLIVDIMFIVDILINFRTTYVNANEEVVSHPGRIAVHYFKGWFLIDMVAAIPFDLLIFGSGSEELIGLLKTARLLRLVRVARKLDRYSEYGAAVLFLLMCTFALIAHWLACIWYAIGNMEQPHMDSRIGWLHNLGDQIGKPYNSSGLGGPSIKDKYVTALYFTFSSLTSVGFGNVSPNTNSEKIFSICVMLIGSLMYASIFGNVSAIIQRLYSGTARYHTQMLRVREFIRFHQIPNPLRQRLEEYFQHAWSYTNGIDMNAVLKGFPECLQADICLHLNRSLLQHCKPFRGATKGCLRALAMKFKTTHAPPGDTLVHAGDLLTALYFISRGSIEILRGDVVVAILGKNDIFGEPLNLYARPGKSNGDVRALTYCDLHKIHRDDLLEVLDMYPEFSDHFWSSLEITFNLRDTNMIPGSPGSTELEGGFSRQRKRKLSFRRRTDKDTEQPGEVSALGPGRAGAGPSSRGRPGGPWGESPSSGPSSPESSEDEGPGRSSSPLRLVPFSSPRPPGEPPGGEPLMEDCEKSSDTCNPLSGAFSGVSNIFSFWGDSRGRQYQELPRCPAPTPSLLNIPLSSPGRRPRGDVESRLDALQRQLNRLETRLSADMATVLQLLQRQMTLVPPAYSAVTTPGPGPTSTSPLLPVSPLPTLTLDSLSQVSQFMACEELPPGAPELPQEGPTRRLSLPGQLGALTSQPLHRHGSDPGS

In order of rising “hERG current change (%, negative = inhibition) at 10uM” value:
1. Cc1cc(Cl)ccc1NC(=O)CN1CCN(C(=O)c2ccco2)CC1  -73.6%
2. CCOC(=O)c1cnc2c(C(=O)OC)cccc2c1NCCN1CCOCC1  -70%
3. Cc1ccc(-n2cc(CN3CCC(CO)(Cc4ccccc4)CC3)cn2)cc1  -65.1%
4. CN(Cc1nc2ccccc2s1)C(=O)c1ccc(F)cc1  -61%
5. Cn1c(=O)c2[nH]c(COc3ccc(C(C)(C)C)cc3)nc2n(C)c1=O  -55.1%
6. CC(C)CC1NC(=O)N(CC(=O)N2CCN(S(=O)(=O)c3ccc(Cl)cc3)CC2)C1=O (centres unmarked)  -40.9%
7. Cc1c(NC(=O)c2cc(-c3ccc(Cl)c(Cl)c3)on2)c(=O)n(-c2ccccc2)n1C  -40.2%
8. CCCOc1ccc(NC(=O)C(=O)NCCCn2ccnc2)cc1  -37%
9. COc1cccc(-c2cc(C(=O)NC3CCCC3)c3ccccc3n2)c1  -36.8%
10. CCCCn1c(CN2CCN(C(=O)c3ccco3)CC2)nc2c1c(=O)n(C)c(=O)n2C  -34.1%
11. COc1ccc(C2=NS(=O)(=O)N(C)C(C(=O)NCc3ccccn3)=C2)cc1  -33.9%
12. Cc1c(N2C(=O)CS/C2=N\N=C\c2ccc(Cl)cc2)c(=O)n(-c2ccccc2)n1C  -32.2%
13. CCOC(=O)c1cnc2c(C(F)(F)F)cccc2c1NCCCN1CCOCC1  -27.8%
14. Cc1ccccc1OCC(=O)N/N=C/c1ccc2c(c1)OCCO2  -27.1%
15. COc1ccc(N2CCN(CC(=O)Nc3cccc(S(=O)(=O)N4CCOCC4)c3)CC2)cc1.Cl  -21.7%
16. Cc1cc(S(=O)(=O)N2CCCC2)ccc1OCC(=O)N1CCCCC1  -17.9%
17. C=CCC(C#Cc1ccc(C)cc1)N(CC)CC (centres unmarked)  -17.3%
18. CCOc1ccc(OCCCCOc2ccccc2C(C)=O)cc1  -17%
19. Cc1ccccc1-c1nnn(CC(=O)Nc2cccc(S(N)(=O)=O)c2)n1  -14.2%
20. CCc1cc2c(=O)c(-c3nc4ccccc4n3C)c(C(C)C)oc2c(CN2CCN(C)CC2)c1O  -13.4%
21. Cc1cc(C)n2nc(C(=O)NC(c3ccccc3)c3ccccc3)nc2n1  -13.4%
22. Cc1ccc2[nH]c(=O)c(CN(Cc3cccnc3)C(=O)c3ccncc3)cc2c1  -11.8%
23. COc1ccc(C(=O)NC(C)c2cnn(-c3ccccn3)c2C)o1 (centres unmarked)  -11.7%
24. COc1ccc(CNC(=S)N/N=C/c2ccncc2)cc1  -10.5%
25. COc1ccc(/C=C(\NC(=O)c2ccccc2)C(=O)NC2CCS(=O)(=O)C2)cc1 (centres unmarked)  -9.78%
26. CC1CC(C)CN(CCCNC(=O)COc2cc(=O)n(C)c3ccccc23)C1 (centres unmarked)  -8.61%
27. OCCCC1CCCN(Cc2cn[nH]c2-c2ccc(F)cc2F)C1 (centres unmarked)  -8.02%
28. CC(=O)Nc1ccc(NC(=O)CSc2nnc(-c3cccs3)n2C)cc1  -7.69%
29. c1ccc2[nH]c(CCCc3nc4ccccc4[nH]3)nc2c1  -7.32%
30. Nc1nnc(N2CCCCC2)s1  -7.04%
31. O=C(NCc1ccco1)C1CCCN1S(=O)(=O)c1ccc2ccccc2c1 (centres unmarked)  -5.75%
32. COc1ccc2nc(SCc3cnc(C)nc3N)[nH]c2c1  -4.7%
33. COc1ccc(C(=O)C2CCCN(C(=O)c3cccnc3OC)C2)cc1F (centres unmarked)  -4.56%
34. COc1ccc(C2C(C(=O)N3CCOCC3)=C(C)NC3=C2C(=O)CC(C)(C)C3)c(OC)c1 (centres unmarked)  -3.42%
35. Cc1cc(C)c(S(=O)(=O)N2CCOC2CNC(=O)C(=O)NCCc2c[nH]c3ccccc23)c(C)c1 (centres unmarked)  -2.75%
36. CCOC(=O)c1c(N)sc(C(=O)N(C)C)c1CN1CCOCC1  -1.37%
37. COc1ccc2c(c1)-c1nc(/N=C/c3ccc(O)cc3)sc1CC2  -0.142%
38. O=[N+]([O-])c1ccc(/C=N\NS(=O)(=O)c2ccc(F)cc2)o1  0.171%
39. O=C(N/N=C/C(Cl)=C/c1ccccc1)c1ccc2c(c1)OCO2  0.853%
40. Cc1cccc(NC(=S)NC(NC(=O)c2ccco2)C(Cl)(Cl)Cl)c1 (centres unmarked)  1.39%
41. O=C(O)c1cccc(NC(=O)c2cn(-c3ccccc3)nc2-c2cc3ccccc3o2)c1  1.49%
42. COc1ccc(CNC(=O)COC(=O)CCCOc2ccc(Cl)cc2Cl)cc1OC  1.57%
43. Cn1c(O)c(/C=C2/C=CC=N2)c(=O)[nH]c1=O  1.78%
44. O=C(O)CC(NC(=O)C(c1ccccc1)c1ccccc1)c1cccc([N+](=O)[O-])c1 (centres unmarked)  2.05%
45. COc1cc(OC)cc(C(=O)NC2CCCCCCC2)c1  2.13%
46. O=C(Nc1ccccc1)c1oc2ccccc2c1NC(=O)C1CC1  2.8%
47. CCN(CC)S(=O)(=O)c1ccc(C(=O)NCC(=O)NC2CC2)cc1  2.9%
48. CCCOc1ccc(C(=O)Nc2cccnc2)cc1  3.01%
49. CC(=O)N1CCN(C(=O)c2ccc(S(=O)(=O)Nc3ccccc3C)cc2)CC1  3.04%
50. O=C(O)c1cccc(CN2C(=O)S/C(=C/c3ccccc3[N+](=O)[O-])C2=O)c1  3.28%
51. O=C(c1ccco1)N1CCN(Cc2nnnn2C2CCCCC2)CC1  3.3%
52. CCOC(=O)NC(=O)CSc1nnnn1-c1ccccc1  3.92%
53. Oc1ccc(/C=N/Nc2cc(N3CCCC3)nc(N3CCCC3)n2)cc1O  4.95%
54. Cc1c(Cc2ccc3c(c2)OCO3)sc(NC(=O)c2ccccc2)c1C(N)=O  5.34%
55. C/C(=N/NC(=O)C1COc2ccccc2O1)c1ccco1 (centres unmarked)  5.52%
56. O=C(Nc1ccccc1Cl)c1cccc(COc2cc(Cl)ccc2Cl)c1  5.62%
57. CN(c1ccccc1C(=O)NC1CCCCC1)S(=O)(=O)c1ccccc1  7.58%
58. CCCOC1OC(=O)c2c1ccc(OC)c2OC (centres unmarked)  7.64%
59. C=CCn1c(-c2ccoc2C)n[nH]c1=S  7.79%
60. O=c1nc(NCc2ccco2)sc2ncccc12  7.83%
61. CCOC(=O)CNC(=O)c1sc(NC(=O)/C=C/c2ccccc2)nc1C  7.9%
62. Cc1ccc(NC(=O)NCCSc2ccc(C)cc2)cc1  8.7%
63. Cc1ccc(NC(=O)c2sc3ccccc3c2Cl)nc1  8.87%
64. Cc1nc2nc(SCc3ccccc3)[nH]n2c(=O)c1C  9.25%
65. COc1ccc(-n2nnnc2SCC(=O)Nc2ccc3c(c2)OCCO3)c(OC)c1  9.4%
66. Cc1nn(C(=O)Cn2ccc([N+](=O)[O-])n2)c(C)c1Cl  10.3%
67. O=C(CN1C(=O)/C(=C/c2c(F)cccc2Cl)Oc2ccccc21)NCc1ccco1  10.9%
68. O=C(N/N=C\c1ccccn1)c1ccccc1O  11%
69. O=C(O)COn1c(-c2ccccc2)nc2ccc([N+](=O)[O-])cc21  11.3%
70. Cc1ccc(CNC(=O)c2ccc(N3CCC4(CC3)CC(c3ccccc3)=NO4)c(N)c2)cc1  11.8%
71. COc1ccccc1C(=O)Nc1ccc(-c2nnn(CC(=O)NCc3ccco3)n2)cc1  12%
72. C/C(=N\NC(N)=S)C12CC3CC(CC(C3)C1)C2  12.1%
73. CC1=NN(c2ccccc2)C(=O)C1N=Nc1ccc(C)cc1 (centres unmarked)  12.2%
74. Nc1nnn(CC(=O)N/N=C/c2ccco2)n1  13.1%
75. O=C(N/N=C/c1ccc([N+](=O)[O-])cc1)c1cc2ccccc2o1  14.1%
76. COc1cccc(OC)c1C(=O)OCC(=O)N1CC(C)CC(C)C1 (centres unmarked)  14.8%
77. O=C(O)COc1ccc(/C=N/NC(=O)c2cccc3ccccc23)cc1  15.2%
78. Cc1cc(/C=N/NC(=O)C(O)(c2ccccc2)c2ccccc2)c(C)n1-c1ccc(C(=O)O)cc1  15.7%
79. CCCNC(=S)NNC(=O)c1cc(-c2cccnc2)nc2ccccc12  15.7%
80. CC1CCC2(CC1)NC(=S)N(c1ccccc1)N2 (centres unmarked)  16.9%
81. CCOC(=O)c1[nH]c2ccc(OCC)cc2c1NC(=O)CN1CCN(c2ccccc2)CC1  17.9%
82. COc1ccc(-n2nnc3c(SCC(=O)Nc4ccccc4F)ncnc32)cc1  18.9%
83. O=C(Nc1cccc(Cl)c1)Nc1ccc2nccnc2c1  19.1%
84. O=c1cc(CCl)nc(Cc2c(Cl)cccc2Cl)[nH]1  20.8%
85. O=C(CCCCCCCC(=O)c1ccccc1)c1ccccc1  23.2%
86. COc1cc(OC)cc(C(=O)NCc2n[nH]c(=S)n2-c2ccccc2OC)c1  23.3%
87. Fc1ccc(/C=N/n2c(-c3cccs3)n[nH]c2=S)cc1  23.7%
88. Cc1[nH]c2ccccc2c1C(=O)CSc1nccc(=O)[nH]1  31.2%
89. COC(=O)c1oc(-c2ccccc2)nc1C  60.7%
